Experimental data as given in ChEMBL document CHEMBL4888484, “Replenishing the malaria drug discovery pipeline: Screening and hit evaluation of the MMV Hit Generation Library 1 (HGL1) against asexual blood stage Plasmodium falciparum ,using a nano luciferase reporter read-out” (2022).
“And” between values parts separate entries of the source, which are not always exact repeats. Identical values can stand only once. Screen size: about 150,000 compounds; about 540 (0.36%) showed an effect of 50% or more. This is one part of the list.

Test system: Plasmodium falciparum
Assay: Primary screen in NF54 nanoGlo assay, in single point, at 2uM, 72h; a lower Z score goes with more inhibition
Type: functional, Erythrocyte
Conditions: timepoint 72 hour

SMILES	% Inhibition	Z score	% Inhibition (2 µM)
Cn1ncc2c(NC[C@H]3CCS(=O)(=O)C3)nc(-c3cccnc3)nc21	-15%	1.91	–
COc1ccc([C@@H](NC(=O)c2cccc3c2CCC3)C(=O)O)cc1Cl	-1%	0.07	–
OC[C@H]1CN(CCc2ccc(F)c(F)c2)C[C@@H]1C(F)(F)F	23%	-3.01	–
OCCn1nc(C2CC2)nc1-c1ccc(N2CCCC2)cc1	-16%	1.69	–
O=C(NCc1c[nH]c2ccccc12)[C@H]1CCc2[nH]cnc2C1	-13%	2.26	–
O=C1CN(c2ncnc3scc(-c4ccccc4)c23)CCN1	-15%	2.07	–
Cc1ccc(F)c(N2CCC[C@H](NC(=O)c3cnn(C)c3)C2=O)c1	-10%	1.31	–
CCN1CC[C@@]2(CCC1=O)CN(c1nc3ccccc3s1)CCN2C	0%	0.03	–
CCCCc1nc2ccccc2c(NC(=O)CNC2CCCCC2)c1CCC	–	–	-20% and -4%
COC[C@](C)(CCO)NC(=O)c1cccc(Cl)c1F	7%	-0.63	–
Cc1nc(CN(C)C(=O)c2c[nH]c(C(F)(F)F)c2)no1	-9%	1.48	–
CCc1c(C)noc1NC(=O)c1ccn(C(F)F)n1	-12%	1.9	–
CN1N=C(C(=O)N2CCC[C@H]2c2cccc(F)c2)CCC1=O	-2%	0.18	–
O=C(c1ccco1)N1CCN(C2CCS(=O)(=O)CC2)CC1	17%	-2.12	–
C[C@H]1CC(Nc2ccc(Cl)cc2)=NC1(C)C	3%	-0.53	–
CC[C@@H](Cc1ccccc1)N(CC)C(=O)c1c[nH]c(C)cc1=O	4%	-0.44	–
Cc1cc2c(cc1-c1nc3c(cnn3C3CCCCC3)[nH]1)OCO2	-15%	1.35	–
C[C@H](NCCN(C)C1CCCCC1)c1ccncc1	3%	-0.38	–
CC(C)c1nc(CCNC(=O)c2ccsc2)no1	-6%	0.95	–
CCCCc1n[nH]c([C@@H](O)COc2ccccc2C)n1	-13%	1.57	–
Cc1noc(C)c1C(=O)NC[C@H]1Cn2cccc2CN1C	-2%	0.41	–
CC(C)CC1CC(NCc2cnn(C)c2)CCO1 (centres undefined)	-3%	0.27	–

SMILES	% Inhibition	Z score	% Inhibition (2 µM)
NC(=O)NC(=O)CNc1cccc(C(F)(F)F)c1	0%	-0.05	–
CC[C@H]1CCCCN1Cc1cc(Cl)cc2c1OCOC2	5%	-0.52	–
COc1ccc(C(C)(C)C(=O)N(C)Cc2cn(C)nc2C(C)C)cc1	38%	-1.19	–
NCc1c(Br)ccc(Cl)c1F	-37%	4.37	–
CCN1CCN(CCCOc2ccc(F)cc2)C(=O)C1=O	-3%	0.48	–
CC[C@@H](c1ccncc1)N(C)C(=O)Nc1cc(F)c(N(C)C)c(F)c1	7%	-1.13	–
COc1cc(Cn2c(=O)c(C#N)c3n(c2=O)CCC3)c(OC)cc1Br	-2%	0.37	–
O=C(Nc1ccc2oc(-c3cccc4ccccc34)nc2c1)c1cccc2c(Br)cccc12	-31%	3.59	–
CCn1cc(C(=O)N[C@@H]2[C@@H]3CCO[C@@H]3[C@@H]2C2CCCC2)cn1	-2%	0.27	–
COc1ccc(Cl)cc1C(C)N[C@@H]1C=C[C@H](CO)C1 (some centres undefined)	-7%	0.86	–
COc1ccc(CCNC(=O)CN2CCC[C@@]3(CNC(=O)O3)C2)cc1	-8%	0.75	–
Cn1cnn(Cc2ccc(C#N)cc2Br)c1=O	0%	-0.05	–
CC(C)Oc1cc(F)ccc1OCc1nnc(C2CC2)n1C	-8%	1.35	–
COC1CCC(N(C)C(=O)CNC(=O)NCc2ccc(C)cc2)CC1 (centres undefined)	-11%	1.17	–
CC(C)(C)C(=O)N1CC[C@@H](CC(=O)O)[C@@H](CC2=NCCc3ccc(C(C)(C)C)cc32)C1	-11%	1.86	–
N#Cc1cc2n(n1)CCN(C(=O)c1nc3ccc(Cl)cn3c1F)C2	2%	-0.45	–
Cc1cc(C)c2c(c1)C1(NC(C(C)O)[C@H]3C(=O)N(C4CCCCCC4)C(=O)[C@H]31)C(=O)N2 (some centres undefined)	-1%	0.13	–
Cc1[nH]c2ncnc(NC(=O)c3ccncc3Cl)c2c1C	11%	-0.98	–
Cc1ccc2c(c1C)NC(=O)[C@]21N2CCC[C@H]2[C@@H](C(=O)c2cc3ccccc3o2)[C@]12C(=O)Nc1ccccc12	-17%	2.18	–
COc1ccc(NC(=O)[C@H](C)n2nc(C)c3c(C)onc3c2=O)cc1OC	-4%	0.35	–
COc1ccccc1OCCCNCCO	-12%	2.33	–
CCn1cc(C(=O)Nc2cccnc2)c(C)n1	3%	-0.61	–

SMILES	% Inhibition	Z score	% Inhibition (2 µM)
CC(=O)NCCCN(C)c1cncc(Br)c1	-4%	0.47	–
C=CCOc1ccc([C@H]2CC(=O)Nc3c2c(C)nn3-c2nc3ccc(C)cc3s2)cc1OC	-6%	0.99	–
CC[C@]1(O)CCCN(C(=O)c2csc3c2CCN(Cc2c(C)noc2C)C3)C1	4%	-0.54	–
COc1ccc(CCNC(=O)CN2CCCC[C@H]2c2cccc(F)c2)cc1	0%	-0.03	–
C[C@@]1(C(=O)NCCc2nnc(N)s2)CCCO1	-6%	1.14	–
O=C(Cn1cncn1)N1CC[C@@]2(CCCN(CCC3CCCCC3)C2)C1	2%	-0.41	–
CN(C(=O)c1ccc2c(c1)OCO2)C1CCN(c2ccccn2)CC1	-5%	0.65	–
O=C(COc1ccc(Cl)cc1Cl)NC(=O)NC1CCCC1	-15%	2.42	–
NC(=O)c1cc(Cl)ccc1NCC(=O)NCc1ccc2c(c1)OCO2	-10%	1.31	–
O=S(=O)(c1ccc(F)cc1)N1CCC(n2cc(CCCO)nn2)CC1	14%	-1.75	–
O=C(COc1ccc(-n2cccn2)nn1)Nc1nccs1	-12%	2.34	–
Cc1c(-c2ccccc2F)[nH]c2ccc(CNC(=O)[C@H](C)N3CCCC3=O)cc12	7%	-1.24	–
O=C(NCCn1c(=O)[nH]c2ccsc2c1=O)c1ccc[n+]([O-])c1	-3%	0.63	–
C[C@H](NC(=O)CN1CCCS1(=O)=O)c1ccccc1	-6%	1.18	–
CCn1cnc2c(NC[C@H]3COCO3)ncnc21	4%	-0.73	–
Cc1cc(F)ccc1-n1cc(C(=O)N2CC3C(C2)C3(C)C)nn1 (centres undefined)	-6%	0.9	–
O[C@H]1CC[C@@H](c2nc(-c3c[nH]c4ccccc34)n[nH]2)CC1	-3%	0.46	–
CC(C)CCN(CC(=O)N1CCc2sccc2[C@@H]1COc1ccccc1)C(=O)c1cccs1	-2%	0.26	–
CC(O)C(NC(=O)C1CCCC1)C(=O)NCC1CCc2ccccc21 (centres undefined)	-17%	2.67	–
Cc1nc2cc(NC(=O)c3ccc4cc[nH]c4c3)ccc2[nH]1	-1%	0.15	–
COc1cccc([C@H]2CC(O)=Nc3nc(N4CCOCC4)sc32)c1OCC(C)C	-5%	0.57	–
CCCc1ncc(C(=O)O[C@H]2CCC[C@@H]2OC)s1	-5%	0.86	–

SMILES	% Inhibition	Z score	% Inhibition (2 µM)
Cc1cccn2c(CC(=O)NC(c3ccccn3)[C@H]3C[C@@H](O)C3)cnc12 (some centres undefined)	-15%	1.81	–
CC1(C)CC(NC(=O)Cc2cccs2)CC(C)(C)N1	-14%	1.81	–
c1ccc(-c2csc(CN3CCC[C@@H]3Cn3cncn3)c2)cc1	5%	-0.75	–
CN(Cc1ccccc1O)C(=O)NCCC(c1ccccc1)c1ccccc1	-5%	0.57	–
CCOc1ncccc1C(=O)Nc1ccc2c(c1)OCCO2	-15%	2.65	–
Cn1cc(C(=O)NCCCc2ccccc2)nn1	-5%	0.69	–
CCOC[C@@H](O)CN(Cc1ccc(F)cc1)Cc1c(-c2ccccc2)noc1N1CCOCC1	-6%	0.83	–
CCCc1c(-c2ccccc2)nc(N2CCN(Cc3ccc4c(c3)OCO4)CC2)[nH]c1=O	-9%	1.24	–
O=C(NCCc1ccccn1)c1coc(CN(Cc2ccc3c(c2)OCO3)Cc2ccc3c(c2)OCO3)n1	-18%	1.68	–
Cc1cc(N2CCn3nc(CN4C[C@@H]5CCC[C@H](C4)C(=O)N5)cc3C2)nc(N)n1	-8%	1.26	–
COc1cccc(C(=O)N2CCN(C(=O)Cc3ccc(Cl)c(Cl)c3)CC2)c1	-1%	0.14	–
CC(C)n1ccc(-c2nnc(NC(=O)C(C)(C)C)o2)n1	-14%	2.1	–
CCc1nnsc1C(=O)Nc1ccc2oc(C)nc2c1	-6%	0.82	–
CCc1n[nH]c(NS(=O)(=O)c2ccc3c(c2)OCCO3)n1	10%	-1.32	–
COC1(c2nccn2C)CCN(c2nc3cccc(F)c3o2)CC1	-6%	1.12	–
CN1[C@@H](c2ccccc2Cl)[C@@H](C(=O)N2CCC(CO)CC2)C[C@@]1(C)C(=O)O	2%	-0.18	–
CCCC(=O)N(CCC)CC(=O)N(Cc1ccco1)C[C@H]1CCCO1	-11%	1.51	–
CCOC(=O)[C@@H](NC(C)=O)C(=O)Nc1c(C)cccc1C	-3%	0.41	–
c1ccc(CCCN2CCCN(Cc3ncc[nH]3)CC2)cc1	-6%	1.2	–
